Read counts are not given, so values of variants with three or more changes are uncertain.
B1: CPEB3 Ribozyme (parent)
chain: UAACAGGGGGCCACAGCAGAAGCGUUCACGUCGCAGCCCCUGUCAGAUUCUGGUGAAUCUGCGAAUUCUGCUGUAUAUCUC

Variants of: B1
Assay: self-cleavage, relative activity (ratio to wild type); higher = more cleavage; in vitro, sequencing
Procedure, shortened: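 Libraries of CPEB3 self-cleaving ribozyme mutants came from rounds of error-prone PCR and carried barcodes, which DNA sequencing matched to variants. In vitro transcription used T7 RNA polymerase at 37°C for 5 hours, with a further 15 min in DNase I before EDTA stopped the reaction; the ribozymes cleaved during both steps. The RNA was reverse transcribed with template switching and sequenced on Illumina. Relative activity is the cleaved/total read fraction of a variant divided by that of the unmutated ribozyme, averaged over three batches with at least 5 reads.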
Work on A15U A45G A56U yielded a self-cleavage of 0.18.
Work on A15U A45G A65U A77G yielded a self-cleavage of 0.11.
With A15U A45G A75U the self-cleavage was 0.78.
A15U A45G U49C U78C showed a self-cleavage of 0.15.
A15U A45G U51A C59A U72C C81G showed a self-cleavage of 0.26.
Work on A15U A47C U54C yielded a self-cleavage of 0.09.
Variant A15U A47G A75U U80C has a self-cleavage of 0.89.
For A15U A47G C50G A75G, the self-cleavage was 0.23.
With A15U A47G U67C the self-cleavage was 0.16.
A15U A47U U48C A57U U58A showed a self-cleavage of 0.13.
A15U A47U U54C showed a self-cleavage of 0.15.
For A15U A56G A65G U80C, the self-cleavage was 0.22.
With A15U A56G U69C the self-cleavage was 0.22.
With A15U A56U G63A the self-cleavage was 0.3.
Work on A15U A56U U60A A75U yielded a self-cleavage of 0.13.
A15U A57G A65G showed a self-cleavage of 0.29.
A15U A57G U78C showed a self-cleavage of 0.63.
With A15U A57U U76C A77U the self-cleavage was 0.34.
With A15U A64G U66C U76G the self-cleavage was 0.11.
With A15U A64G U67G C81U the self-cleavage was 0.23.
With A15U A64G U69A the self-cleavage was 0.1.
A15U A64U A75C U76A showed a self-cleavage of 0.36.
For A15U A75U A77G, the self-cleavage was 1.09.
Variant A15U A75U U80A has a self-cleavage of 1.22.
A15U A77U U80A gave a self-cleavage of 0.87.
For A15U C23A C62A G73C, the self-cleavage was 0.23.
A15U C23G A35U C38U U48C A57G C68U showed a self-cleavage of 0.05.
Work on A15U C23U U26C U80A yielded a self-cleavage of 0.27.
Work on A15U C27G A35U yielded a self-cleavage of 0.07.
A15U C27U U43A A56G U74G gave a self-cleavage of 0.04.
A15U C29A A35G U54C gave a self-cleavage of 0.97.
Work on A15U C29A A45U U58C U66C U74C yielded a self-cleavage of 0.13.
In the case of A15U C29A U54G U58A U78C, the self-cleavage is reported as 0.08.
Work on A15U C32U A35G C44U U54C U72C U80C yielded a self-cleavage of 0.29.
With A15U C32U A35U the self-cleavage was 0.18.
With A15U C38A A56C C59A the self-cleavage was 0.14.
In the case of A15U C38A U60A U69A, the self-cleavage is reported as 0.15.
With A15U C40A U48C U76A the self-cleavage was 0.2.
A15U C62U U74C A75U showed a self-cleavage of 0.18.
In the case of A15U G16A A20U U51C A56G G70A, the self-cleavage is reported as 0.04.
Work on A15U G19A G24C U26C U58G yielded a self-cleavage of 0.2.
With A15U G22A U31A C32A the self-cleavage was 0.54.
With A15U G24A A57G the self-cleavage was 0.2.
For A15U G24A U67C, the self-cleavage was 0.1.
With A15U G30A C32U U41G G46U A65G U69C the self-cleavage was 0.04.
In the case of A15U G30U U60A, the self-cleavage is reported as 0.13.
In the case of A15U G33A U69C U76A, the self-cleavage is reported as 0.15.
In the case of A15U G42A G61C U66C U74A, the self-cleavage is reported as 0.12.
Work on A15U G52C U54A A75U yielded a self-cleavage of 1.04.
A15U G52C U60A gave a self-cleavage of 0.21.
With A15U G70C U76C the self-cleavage was 0.12.
Variant A15U U25A A28G A47G U54G U66C has a self-cleavage of 0.07.
A15U U25A C29U U69C showed a self-cleavage of 0.06.
With A15U U25A U41C U80C the self-cleavage was 0.23.
A15U U25A U54G A57G U80C showed a self-cleavage of 0.38.
A15U U25C A28G A57U U58A U72G C79U showed a self-cleavage of 0.03.
Variant A15U U25C A45U G53C U60G has a self-cleavage of 0.18.
Work on A15U U25C A64G yielded a self-cleavage of 0.19.
For A15U U25C C27U, the self-cleavage was 0.21.
Work on A15U U25C G30A A45G U67A yielded a self-cleavage of 0.1.
With A15U U25C U26C U51C A65G U72C the self-cleavage was 0.07.
In the case of A15U U25C U41A A45U U54C, the self-cleavage is reported as 0.13.
In the case of A15U U25C U43C, the self-cleavage is reported as 0.23.
A15U U25G U31C G70A A77U gave a self-cleavage of 0.07.
A15U U26A A45U U76C C79G showed a self-cleavage of 0.44.
For A15U U26C A28G U49A, the self-cleavage was 0.15.
A15U U26C A45G A47G U67C gave a self-cleavage of 0.19.
In the case of A15U U26C A45G U48C G53A, the self-cleavage is reported as 0.12.
Work on A15U U26C A56G A64U yielded a self-cleavage of 0.41.
A15U U26C A77U gave a self-cleavage of 0.22.
Work on A15U U26C C29U A35C U60C G63A A77G yielded a self-cleavage of 0.06.
With A15U U26C C29U U43A A56G A57G the self-cleavage was 0.07.
With A15U U26C U41G A65G A77G the self-cleavage was 0.07.
Variant A15U U26C U51C U67C U78C has a self-cleavage of 0.08.
A15U U26C U60G U72A gave a self-cleavage of 0.26.
Variant A15U U26G A35G A75G has a self-cleavage of 0.38.
A15U U31A U43C A56U showed a self-cleavage of 0.12.
A15U U31C A35G U60C showed a self-cleavage of 0.5.
A15U U31C A35U gave a self-cleavage of 0.15.
In the case of A15U U31C A57G U80C, the self-cleavage is reported as 0.39.
In the case of A15U U31C C40U U41C U78C C81U, the self-cleavage is reported as 0.62.
Variant A15U U31C C44A has a self-cleavage of 0.12.
A15U U31C G42A A75C showed a self-cleavage of 0.24.

— the RNAGym collection of RNA variant scans (doi:10.1093/nar/gkz1192)
